# The supplement of paper PMC7826260
# The list shows a part of the results. Cleavage of a single-stranded DNA pool by Rep nickase domains was read by sequencing for 1 h at 37 °C with 3 µM enzyme; only the middle of the 90-letter strands is printed. The score is log2 (uncut reads / reads without enzyme); more negative means more cut, near 0 not cut, and no call is made. Shares of all reads are compared; uncut strands gain when others are lost, and binding without cutting may add a little.
# Columns and labels:
# Test in all cases: uncleaved DNA left, log2 of reads against the no-enzyme library (log2 ratio); higher = less cleavage (more negative = more Rep cleavage of the k-mer); sequences stand for … in CTCGTCCG…ACCGGAGA
# [1] = tested on: T1, Rep nickase domain of Muscovy duck circovirus
# T1 sequence (Rep 1-111, printed without the tag): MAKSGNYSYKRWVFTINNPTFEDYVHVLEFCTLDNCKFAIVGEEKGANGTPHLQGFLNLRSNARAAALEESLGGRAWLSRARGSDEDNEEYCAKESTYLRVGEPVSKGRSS
# Description: (§1)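 A pool of 90-nt single-stranded DNAs with seven random bases just before the constant AC of the nick site (name = the seven bases) was cut by 3 µM recombinant His6-SUMO-tagged Rep nickase domain (300 nM DNA, 50 mM HEPES pH 8.0, 50 mM NaCl, 1 mM MnCl2, 1 h, 37 °C, three replicates). Uncut DNA was amplified and sequenced.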
# [2] = tested on: T2, Rep nickase domain of banana bunchy top virus
# T2 sequence (Rep 1-94, printed without the tag): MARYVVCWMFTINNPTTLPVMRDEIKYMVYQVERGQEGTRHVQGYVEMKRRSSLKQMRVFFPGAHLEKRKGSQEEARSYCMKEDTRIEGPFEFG
# Description: as §1
# [3] = tested on: T3, Rep nickase domain of cabbage leaf curl virus
# T3 sequence (Rep 1-116, printed without the tag): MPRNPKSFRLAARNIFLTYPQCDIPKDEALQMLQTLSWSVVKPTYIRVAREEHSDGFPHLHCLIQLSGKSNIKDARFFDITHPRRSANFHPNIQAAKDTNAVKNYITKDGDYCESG
# Description: as §1
# [4] = tested on: T4, Rep nickase domain of chickpea chlorotic dwarf virus
# T4 sequence (Rep 1-124, printed without the tag): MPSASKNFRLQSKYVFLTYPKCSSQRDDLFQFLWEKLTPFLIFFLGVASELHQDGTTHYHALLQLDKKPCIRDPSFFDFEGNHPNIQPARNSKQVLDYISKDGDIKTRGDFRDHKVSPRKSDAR
# Description: as §1
# [5] = tested on: T5, Rep nickase domain of faba bean necrotic yellows virus
# T5 sequence (Rep 1-98, printed without the tag): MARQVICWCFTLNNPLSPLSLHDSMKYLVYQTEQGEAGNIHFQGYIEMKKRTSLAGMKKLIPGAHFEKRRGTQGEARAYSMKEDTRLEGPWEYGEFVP
# Description: as §1
# [6] = tested on: T6, Rep nickase domain of maize striate mosaic virus
# T6 sequence (Rep 1-117, printed without the tag): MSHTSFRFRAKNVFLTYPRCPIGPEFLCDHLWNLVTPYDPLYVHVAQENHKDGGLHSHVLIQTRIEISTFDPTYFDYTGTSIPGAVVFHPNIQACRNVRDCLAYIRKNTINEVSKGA
# Description: as §1
# [7] = tested on: T7, Rep nickase domain of porcine circovirus 2
# T7 sequence (Rep 2-116, printed without the tag): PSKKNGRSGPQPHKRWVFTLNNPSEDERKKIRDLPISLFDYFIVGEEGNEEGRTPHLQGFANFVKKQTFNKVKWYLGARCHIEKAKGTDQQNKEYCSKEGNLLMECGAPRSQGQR
# Description: as §1
# [8] = tested on: T8, Rep nickase domain of tomato golden mosaic virus
# T8 sequence (Rep 1-124, printed without the tag): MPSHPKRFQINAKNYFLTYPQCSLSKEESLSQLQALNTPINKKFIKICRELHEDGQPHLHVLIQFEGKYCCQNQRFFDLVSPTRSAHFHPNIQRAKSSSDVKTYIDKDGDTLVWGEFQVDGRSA
# Description: as §1
# [9] = tested on: T9, Rep nickase domain of tomato yellow leaf curl virus
# T9 sequence (Rep 1-136, printed without the tag): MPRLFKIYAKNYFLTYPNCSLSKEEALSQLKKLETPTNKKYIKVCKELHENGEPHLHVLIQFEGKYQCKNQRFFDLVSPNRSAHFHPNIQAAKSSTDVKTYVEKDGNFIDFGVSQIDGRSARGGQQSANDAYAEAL
# Description: as §1
# [10] = tested on: T10, Rep nickase domain of wheat dwarf virus
# T10 sequence (Rep 1-137, printed without the tag): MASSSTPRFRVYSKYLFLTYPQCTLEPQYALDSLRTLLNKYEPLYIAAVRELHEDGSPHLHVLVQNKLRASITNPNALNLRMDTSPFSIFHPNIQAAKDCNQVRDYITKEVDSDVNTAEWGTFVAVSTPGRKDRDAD
# Description: as §1
Sequence,uncleaved DNA left (log2) [1],uncleaved DNA left (log2) [2],uncleaved DNA left (log2) [3],uncleaved DNA left (log2) [4],uncleaved DNA left (log2) [5],uncleaved DNA left (log2) [6],uncleaved DNA left (log2) [7],uncleaved DNA left (log2) [8],uncleaved DNA left (log2) [9],uncleaved DNA left (log2) [10]
AGGCGCA,0.102,0.0616,0.0795,0.331,0.0792,0.411,0.0816,0.181,0.0335,0.174
GGTCGCG,0.0078,0.0371,-0.678,0.593,0.0634,-0.294,0.105,0.0299,0.0775,-0.0446
ACGGTGG,-0.167,-0.172,-0.58,-0.458,-0.112,-0.966,0.0424,-0.0764,-0.144,-0.15
TGCACGT,0.0717,-0.0116,-0.0458,0.0466,-0.0773,-0.305,0.0311,-0.122,-0.0327,0.0338
TCTTCAT,0.0292,0.0818,0.165,-0.667,-0.0755,-0.311,-0.579,-0.0732,0.0574,0.116
AGTAGGT,0.114,0.00309,0.422,1.07,0.0548,1.33,-3,0.124,-0.0929,0.0674
CAATTTA,-0.229,0.114,-1.69,-2.72,0.077,-1.05,-1.11,-0.185,-0.0725,-0.401
CTACAAT,0.012,0.0226,-0.342,-2.16,-0.137,-0.699,-0.147,-0.155,0.0481,-0.0416
ACTGAAT,0.0137,-0.099,0.155,0.516,0.159,0.555,0.0411,0.0379,0.116,0.1
TCATAGG,-0.0601,-0.0295,0.391,1.17,0.019,1.13,0.0297,0.0451,-0.0695,0.076
AGATGCA,0.0405,-0.0544,-0.422,-0.598,0.0132,-0.845,-0.0922,-0.0382,0.0412,-0.0718
AAAACAC,0.0334,0.114,-0.103,-0.7,0.106,-0.713,0.0571,0.0518,0.0357,0.0626
ATTAACA,-0.0442,0.0595,-0.504,-2.22,-0.0512,-0.702,-0.036,0.0596,0.0765,0.0809
TCAGGTA,-0.0188,-0.116,0.246,0.929,-0.078,1.29,-0.0184,0.0538,-0.202,0.0653
GACGGCG,0.0819,-0.0384,-0.623,0.247,0.125,-0.696,0.0524,-0.0507,0.00817,-0.179
TTGGCGG,-0.0134,-0.0953,0.203,0.712,0.0188,0.825,0.133,0.0518,-0.053,-0.07
CGATCAC,-0.0517,0.0129,0.0637,0.102,0.0233,-0.211,0.0511,-0.0236,0.0455,0.08
TGGCTGC,0.0211,-0.013,0.172,0.729,-0.0564,0.994,0.0737,0.0436,-0.0801,0.0392
TCATGGT,-0.299,-0.189,-0.631,-1.35,-0.162,0.692,-0.566,-0.147,-0.172,-0.179
TGGGCCA,0.177,0.189,0.847,1.79,0.0196,2.14,0.289,0.168,0.151,0.203

Sequence,uncleaved DNA left (log2) [1],uncleaved DNA left (log2) [2],uncleaved DNA left (log2) [3],uncleaved DNA left (log2) [4],uncleaved DNA left (log2) [5],uncleaved DNA left (log2) [6],uncleaved DNA left (log2) [7],uncleaved DNA left (log2) [8],uncleaved DNA left (log2) [9],uncleaved DNA left (log2) [10]
AGGGCCC,-0.0373,0.0106,0.367,0.946,-0.0893,1.08,0.0763,-0.02,0.075,0.0458
GATCGTC,0.142,-0.00857,0.243,0.503,-0.0124,0.219,0.174,0.0627,0.0498,0.0284
GTAGCCC,0.0767,-0.0113,0.214,0.773,-0.0165,1.31,0.0655,-0.063,0.0402,0.0409
CTTCAAA,0.167,0.11,0.16,-0.125,0.108,-0.502,0.039,0.116,0.0598,0.106
TTAGGGC,0.244,0.111,0.518,0.697,0.139,0.635,0.0131,0.203,0.0683,0.176
CCAGTAT,0.0973,-0.0214,0.0443,-0.193,0.0388,0.0863,0.0113,-0.0544,-0.0142,-0.0581
TTTTCTT,-2.72,-0.486,-0.084,-2.36,0.0784,-0.261,-3.01,0.00486,0.0559,-0.272
ATGGAAC,0.151,0.0662,0.175,0.717,0.18,0.469,0.103,0.202,-0.0139,0.121
GCTCACC,0.0482,0.0441,0.111,-0.0282,-0.0569,0.25,-0.049,0.0578,-0.118,-0.0268
CCTAAAG,0.0161,0.00946,-0.845,-0.303,0.106,-1.02,0.25,0.00394,-0.0793,-0.0755
GATTACG,-0.0202,-0.0247,-0.806,-0.486,-0.0308,-0.854,0.014,-0.0224,-0.0968,-0.0841
TGGGGCG,-0.0159,0.0224,-0.37,0.76,0.0439,-0.204,0.249,0.102,0.0884,-0.000239
TCGGGGG,0.0544,0.00288,0.173,0.236,0.049,0.15,0.235,0.0205,0.0629,-0.0432
GTTGAAG,0.00738,0.127,-0.029,0.196,0.0118,-0.112,0.141,0.146,0.0546,-0.0531
CTACACA,0.0456,0.101,-0.186,-1.94,0.0856,-0.609,0.0133,-0.167,0.0607,0.00268
TTTGTCC,-0.14,-0.161,0.011,-0.611,-0.0582,-0.717,-0.223,-0.17,-0.051,-0.0755
CGTTAGC,0.00783,0.00892,0.152,0.608,0.0581,0.0889,0.0458,0.0408,-0.0993,0.0694
AACCACG,-0.0615,-0.116,-0.957,-0.276,-0.0741,-0.985,-0.371,-0.0616,-0.0258,-0.128
GTCGGTA,0.13,0.162,0.361,0.877,0.0439,1.49,0.0643,0.0227,0.13,0.0915
ACCCGCG,-0.0167,0.0759,0.283,1.7,0.0793,1.72,0.187,0.0378,0.0375,0.00781

Sequence,uncleaved DNA left (log2) [1],uncleaved DNA left (log2) [2],uncleaved DNA left (log2) [3],uncleaved DNA left (log2) [4],uncleaved DNA left (log2) [5],uncleaved DNA left (log2) [6],uncleaved DNA left (log2) [7],uncleaved DNA left (log2) [8],uncleaved DNA left (log2) [9],uncleaved DNA left (log2) [10]
ATTTGGA,0.0049,-0.0826,-0.138,-0.32,-0.0405,-0.882,-0.121,-0.122,-0.0156,-0.0837
GCGATTA,0.102,0.0738,0.129,0.385,0.0544,0.785,0.109,0.0339,0.0368,0.0464
AGAACTC,0.073,0.000947,0.365,0.773,0.0282,0.898,0.178,0.0194,0.0215,0.229
TACTCGA,-0.135,-0.123,-0.682,-1.32,-0.0197,-1.02,-0.351,-0.0232,-0.0503,-0.14
TGAAGTA,-0.0253,-0.107,-0.0548,-0.973,0.0185,-0.438,-0.0667,-0.0727,0.0321,-0.0792
TGAGACC,-0.0199,0.0434,0.259,0.764,-0.0583,-0.0659,0.00854,-0.144,0.077,0.131
GCAGCTT,0.0717,-0.0398,-0.0551,-0.974,0.0481,0.0709,-0.016,0.0608,0.0564,-0.0457
CATCTCG,-0.0028,-0.0875,-0.733,-0.0604,0.124,-0.866,0.158,-0.0466,0.167,0.107
TGTGGCT,0.0466,-0.0507,0.0441,0.0786,0.0618,-0.00452,0.113,-0.0443,-0.134,-0.0852
TACCCTT,-0.0493,-0.185,-1.19,-2.57,0.106,0.195,-1.49,-0.299,-0.00203,-0.17
TACTGTA,-1.01,-0.145,-0.0675,-0.868,-0.00715,0.659,-2.79,-0.127,-0.00742,0.064
CAGATCT,0.0383,-1.58,-0.694,-2.84,-0.778,-0.501,-3.35,-0.00878,0.0257,-0.0601
GGAATTA,0.109,0.211,0.648,1.42,0.114,2.02,0.184,0.0604,0.142,0.209
CTATGTA,-0.395,-0.000402,-0.257,-1.3,0.0451,-0.774,-0.396,-0.0804,0.0111,-0.014
GTTTTTC,-0.0451,-0.0313,0.215,0.801,0.0162,1.57,-0.0149,0.0259,0.0116,-0.00644
ACATGAA,0.0109,0.0165,-0.232,-0.198,0.0518,-0.789,0.154,0.023,-0.0397,-0.11
AGACACC,-0.0296,0.0833,0.786,1.61,0.0853,2.04,0.0423,0.102,0.148,0.235
CTAGCTA,-0.0809,-0.0137,-0.0371,-0.743,-0.182,-0.475,-0.112,-0.00467,-0.0505,-0.0703
CTGACCA,-0.0525,0.0464,-0.0454,0.158,-0.0567,0.217,0.00904,-0.0393,-0.0336,-0.0191
AGTTGTA,-0.0819,-0.1,-0.104,-0.487,-0.0522,-0.438,-2.33,-0.0507,-0.0658,-0.0532
